# Reference: PubChem BioAssay AID686979 (National Center for Advancing Translational Sciences (NCATS), 2013)
# Screen size: about 420,000 compounds; about 50,000 (12%) were called active. The shares of active, inactive and inconclusive entries below differ from those in the screen. Calls come from the whole dose curve; as a rule, active = well fitted inhibition curve with a large enough effect; inconclusive = small, poorly fitted or top-dose-only effect; inactive = flat fitted curve, though single readings scatter. Potencies of inconclusive entries are left out as doubtful fits.
# Assay: qHTS for Inhibitors of human tyrosyl-DNA phosphodiesterase 1 (TDP1): qHTS in cells in presence of CPT; note: nearly all actives have a fitted effect of over 55% in size
# Settings: chicken DT40 Tdp1-/-;hTDP1 cells + 20 nM CPT, ATP luminescence, 48 h; activity change, negative = growth inhibition: at 46.2 µM (top of the series) unless noted
# Outline: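 Cell growth measured by CellTiter-Glo luminescence after a minimum 48 h, 37 C compound exposure with 20 nM CPT in Tdp1-knockout DT40 cells stably expressing hTDP1, seeded 400/well; qHTS titration format.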
# % is set by controls: 0 for no effect and ±100 for the full control effect; potency is the fitted concentration of half-maximal effect; tags give direction and shape of the fitted curve.
Compound,Potency,"activity change, negative = growth inhibition"
CNc1ncnc2c1ncn2[C@H]1CN(Cc2ccccc2)C[C@@H](CO)O1,"inconclusive [inhibitor, partial curve, poor fit]",–
Cc1cc(=O)n2c(C(=O)Nc3ccc(C)c(Cl)c3)c(C(=O)Nc3ccccc3)sc2n1,–,inconclusive: -30.5% [inhibitor]
Clc1ccccc1-c1cc(NCc2ccccc2)ncn1,"inconclusive [inhibitor, single point]",–
COc1ccc(S(=O)(=O)N(C)C[C@H]2Oc3cc(Br)ccc3S(=O)(=O)N([C@H](C)CO)C[C@H]2C)cc1,"inconclusive [inhibitor, single point]",–
COc1ccc(NC(=O)CN(C)S(=O)(=O)c2ccc3c(c2)CC(C)N3C(C)=O)c(OC)c1 (stereo unspecified),"inconclusive [inhibitor, single point]",–
COc1ccc(C(=O)N(Cc2sccc2C)C2CCS(=O)(=O)C2)cc1Cl (stereo unspecified),"inconclusive [inhibitor, single point]",–
O=C(CCNC(=O)c1ccccc1Cl)Nc1ccc2c(c1)OCCO2,–,inactive: -20.5%
COc1cc(CN2CCC(N3CCC(C(=O)N4CCCC4)CC3)CC2)cc2c1OCO2,–,inactive: 10.9%
CCOC(CNC(=O)C1CCN(S(=O)(=O)c2ccc3nc4c(c(C(=O)O)c3c2)CC(C)CC4)CC1)OCC (stereo unspecified),–,inactive: 5.36%
Nc1nc(=S)c2ncn(C3OC(CO)CC3O)c2[nH]1 (stereo unspecified),–,inactive: -18.5%
S=C(NCc1cccnc1)Nc1cccc2ccccc12,–,inactive: -23%
Cc1ccccc1Nc1nc(N)nc(COC(=O)[C@@H](NC(=O)c2c(F)cccc2F)C(C)C)n1,–,inactive: 10%
CC(=NCCc1c(C)[nH]c2ccc(C)cc12)C1=C(O)CC(c2ccccc2)CC1=O (stereo unspecified),active: 1.16 µM,–
COc1cc(-c2nc3cnccn3c2Nc2c(C)cccc2C)ccc1O,"inconclusive [inhibitor, single point]",–
COc1cc(OC)c(N(C)S(=O)(=O)c2cccc(C(=O)NCc3cccs3)c2)cc1Cl,"inconclusive [inhibitor, single point]",–
C=CCN1C(=O)C2(C(C#N)=C(N)Oc3n[nH]c(CCC)c32)c2ccccc21 (stereo unspecified),–,inactive: 9.57%
Cc1ccc(-c2nc(CS(=O)CC(=O)NCCC(C)C)c(C)o2)cc1 (stereo unspecified),"inconclusive [inhibitor, single point]",–
Cc1ccc(NC2(c3nnnn3-c3c(C)cccc3C)CCCCC2)cc1,"inconclusive [inhibitor, single point]",–
S=C(NCCc1ccccc1)Nc1c(Cl)cccc1Cl,"inconclusive [inhibitor, single point]",–
O=C(NC1CCCCC1)[C@@H]1CC=C[C@@H]2CCN(Cc3ccc(Cl)c(Cl)c3)C(=O)[C@@H]21,–,inconclusive: -37.9% [inhibitor]
COc1c(Cl)cc(C(=O)Nc2cccc(-c3nc4ccccc4[nH]3)c2)cc1Cl,"inconclusive [inhibitor, single point]",–
COc1ccc2c(C)cc(SCc3c(C)noc3C)nc2c1,"inconclusive [inhibitor, single point]",–

Compound,Potency,"activity change, negative = growth inhibition"
COC(=O)CC1C2(C)CC34OC5(C)O[C@@]6(C7/C(=C(/O)C(C)C)C(=O)OC(c8ccoc8)[C@]7(C)C(OC(C)=O)C(OC(C)=O)[C@]6(O5)[C@@]13C)C(OC(C)=O)[C@]4(O)C2OC(=O)C(C)C (stereo partly specified),–,inactive: -13.6%
O=C(CSc1nnc(Cc2cccs2)n1-c1ccccc1)NC1CCCCC1,"inconclusive [inhibitor, single point]",–
Oc1ccc(Nc2ncnc3c2oc2ccccc23)cc1,"inconclusive [inhibitor, single point]",–
O=C(/C=C/c1ccco1)NCCc1ccc(F)cc1,"inconclusive [inhibitor, single point]",–
COc1ccc(C2c3[nH]c4ccccc4c3CC3C(=O)N(CCc4ccc(OC)c(OC)c4)CC(=O)N32)cc1 (stereo unspecified),–,inactive: 3.66% [at 9.04 µM]
CC(C)[C@@H](C(=O)N1CCN(C(=O)OC(C)(C)C)CC1)n1cc(CCO)nn1,–,inactive: -1.5%
Cc1ccc2oc(-c3cc(NC(=O)c4ncn[nH]4)ccc3O)nc2c1,"inconclusive [inhibitor, single point]",–
CC(=O)c1cccc(OCc2cc(C(=O)NCCC3=CCCCC3)no2)c1,"inconclusive [inhibitor, single point]",–
CCN1CCc2nc(N)sc2C1,"inconclusive [inhibitor, single point]",–
CCN1CCN(C(=O)c2ccc3c(=O)n(CCC4=CCCCC4)c(=O)[nH]c3c2)CC1,"inconclusive [inhibitor, partial curve, poor fit]",–
COc1ccc(-n2ncc3c(N(C)C4CCCCC4)ncnc32)cc1,"inconclusive [inhibitor, single point]",–
Cc1ccsc1/C=N/NC(=O)c1c[nH]c2ccccc12,"inconclusive [inhibitor, single point]",–
Cc1ccc(S(=O)(=O)N(CC(=O)N/N=C/c2ccc(F)cc2)c2cccc3cccnc23)cc1,"inconclusive [inhibitor, single point]",–
CC(=O)c1ccc(S(=O)(=O)N2CCN(CCOc3ccccc3)CC2)cc1,"inconclusive [inhibitor, single point]",–
CCOC(=O)c1c(Nc2cccc(O)c2)nnc(-c2ccccc2)c1-c1ccccc1,"inconclusive [inhibitor, single point]",–
O=C(NCc1ccc(F)cc1)c1ccc(CSc2nc3ccncc3n2Cc2ccc(F)cc2)cc1,active: 23.1 µM,–
CCc1cccc(C)c1NS(=O)(=O)c1c(C(=O)N2CCCCCC2)c(C)n(C)c1C,"inconclusive [inhibitor, single point]",–
COc1ccc(Cl)cc1NC(=O)Cn1nnc2sc3c(c2c1=O)CCC(C(C)(C)C)C3 (stereo unspecified),"inconclusive [inhibitor, partial curve, poor fit]",–
CS(=O)(=O)c1ccc2nc(NC(=O)c3cc([N+](=O)[O-])cc([N+](=O)[O-])c3)sc2c1,"inconclusive [inhibitor, partial curve]",–
COc1ccc2oc(=N)c(C(=O)Nc3ccc(C)cc3)cc2c1,"inconclusive [inhibitor, single point]",–
CCCn1c(NC(=O)c2ccccc2Br)nc2ccccc21,"inconclusive [inhibitor, partial curve]",–
CC(=O)N1CCc2cc(S(=O)(=O)CCC(=O)NCCc3ccccc3)ccc21,–,inactive: -3.47%

Compound,Potency,"activity change, negative = growth inhibition"
O=C(Nc1ccc(O)cc1)c1ccc(NC(=O)C2CCCO2)cc1 (stereo unspecified),–,inactive: -17.2%
COc1ccc(C=O)cc1COc1ccccc1F,"inconclusive [inhibitor, single point]",–
COc1cccc(-c2cccc(-c3nc(C(=O)NCc4ccc5c(c4)OCO5)cc4c3[C@H](CCO)N(S(=O)C(C)(C)C)C4)c2)c1 (stereo partly specified),"inconclusive [inhibitor, single point]",–
O=C(COc1ncnc2ccccc12)c1ccc2c(c1)OCCO2,–,inactive: -0.498%
Cc1cc(C)c(C)c(S(=O)(=O)N2CCC(C(=O)N3CCN(c4ccc(F)cc4)CC3)CC2)c1C,"inconclusive [inhibitor, single point]",–
O=C(Nc1ccc(Cc2ccc(NC(=O)Nc3cccnc3)cc2)cc1)Nc1cccnc1,–,inactive: -16%
O=C(c1cc(=O)c2cc(Cl)ccc2o1)N1CCN(Cc2ccccc2)CC1,"inconclusive [inhibitor, single point]",–
Brc1csc(C=Nc2ccc3c(c2)OCCOCCOCCOCCO3)c1,–,inactive: -0.375%
O=C(Nc1cccc(O)c1)c1cc(-c2ccco2)on1,"inconclusive [inhibitor, partial curve, poor fit]",–
Fc1ccc(-c2nc3c4ccccc4ccn3c2Cc2ccccc2)cc1,–,inactive: -13.1%
COCc1c(C(=O)N2CCN(c3ccccc3O)CC2)cnn1-c1nccc(-c2cccs2)n1,"inconclusive [inhibitor, single point]",–
Cc1ccc(-c2cc(C(=O)NCc3ccccn3)c3ccccc3n2)cc1C,"inconclusive [inhibitor, single point]",–
O=C(Nc1cc(S(=O)(=O)Nc2ccc(Cl)cc2)ccc1O)c1ccc(S(=O)(=O)N2CCCCCC2)cc1,"inconclusive [inhibitor, single point]",–
CS(=O)(=O)Nc1cccc(C(=O)OCCCOc2ccc(F)cc2)c1,–,inactive: -18.2%
O=C(NCc1cccc(C(F)(F)F)c1)c1ccc2sc([C@@H]3O[C@H](CO)[C@@H](O)[C@H]3O)nc2c1,"inconclusive [inhibitor, single point]",–
O=C(COc1cccc(F)c1)Nc1nc(-c2cccnc2)cs1,"inconclusive [inhibitor, single point]",–
COc1cc(Cl)c(C)cc1NC(=O)CCCN1C(=O)C(c2ccccc2)Oc2cccnc21 (stereo unspecified),active: 25.9 µM,–
O=C(Cn1nc(Cc2cccnc2)c2ccccc2c1=O)NCc1ccc(F)cc1,–,inactive: -16.1%
O=C(CSc1nc2ccccc2nc1Cc1ccc(F)cc1)Nc1ccc2c(c1)OCO2,"inconclusive [inhibitor, single point]",–
Cc1cccc(Oc2nc3ccccn3c(=O)c2/C=C(\C#N)c2nc3ccccc3s2)c1C,active: 20.6 µM,–
CCOc1ccccc1-c1cc(C(=O)N/N=C/c2ccc3c(c2)OCO3)c2ccccc2n1,active: 11.6 µM,–
O=C(Nc1ccc(F)cc1)Nc1nnc(COc2ccccc2F)s1,active: 14.6 µM,–
